Data on 9 molecules can be found in PMC4047078.

Experiment [1] has as its target AtGRIP_(aa711–753) (Arabidopsis thaliana) (UniProt Q8S2T0). Briefly: two-hybrid; AH109 yeast, pGBKT7 and pGADT7 fusions; growth on SD/-Trp/-Leu/-His/-Ade, 7 days at 30°C; X-gal test of the MEL1 reporter.
Experiment [2] has as its target AtGRIP_(aa711–776) (Arabidopsis thaliana) (UniProt Q8S2T0). The experiment is described as above.
The target of experiment [3] is T1, AtGRIP_(aa1-604) (Arabidopsis thaliana) (UniProt Q8S2T0).
T1 sequence: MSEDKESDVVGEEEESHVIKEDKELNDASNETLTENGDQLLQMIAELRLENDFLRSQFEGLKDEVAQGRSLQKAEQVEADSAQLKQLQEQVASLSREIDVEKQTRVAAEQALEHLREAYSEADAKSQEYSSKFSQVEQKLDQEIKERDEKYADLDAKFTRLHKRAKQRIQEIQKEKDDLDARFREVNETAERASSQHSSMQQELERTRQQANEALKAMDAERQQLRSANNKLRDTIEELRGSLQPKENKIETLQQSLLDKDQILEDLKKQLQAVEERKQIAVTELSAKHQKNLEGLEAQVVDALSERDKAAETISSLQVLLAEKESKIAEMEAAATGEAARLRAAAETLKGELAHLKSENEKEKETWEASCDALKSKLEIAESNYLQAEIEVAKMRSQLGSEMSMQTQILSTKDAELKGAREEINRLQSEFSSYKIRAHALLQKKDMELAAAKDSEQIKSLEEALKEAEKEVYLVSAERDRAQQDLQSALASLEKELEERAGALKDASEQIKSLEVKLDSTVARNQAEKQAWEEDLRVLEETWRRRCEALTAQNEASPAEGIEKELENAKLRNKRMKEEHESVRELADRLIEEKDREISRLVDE
The experiment is described as above.

The target in experiment [4] is T2, AtGRIP_(aa605–788) (Arabidopsis thaliana) (UniProt Q8S2T0).
T2 sequence: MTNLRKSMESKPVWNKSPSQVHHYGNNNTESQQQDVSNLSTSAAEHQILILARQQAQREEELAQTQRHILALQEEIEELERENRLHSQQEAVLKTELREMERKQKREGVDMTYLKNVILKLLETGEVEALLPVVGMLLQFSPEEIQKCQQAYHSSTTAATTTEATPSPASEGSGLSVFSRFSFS
The description is as above.

For experiment [5], the target named is AtGRIP_(aa711–766) (Arabidopsis thaliana) (UniProt Q8S2T0). The experiment is described as above.
In experiment [6] the target is Endogenous Arabidopsis AtGRIP (Arabidopsis thaliana (endogenous in seedlings)) (UniProt Q8S2T0). The experiment can be described thus: cross-linking; supernatant of Arabidopsis seedling extract in 0.1 M PBS pH 7.0 with DTSSP (0.05 mM in the methods, 0.25 mM in the legend) 30 min at 25°C; non-reducing SDS-PAGE and immunoblot with anti-AtGRIP antibody.
In experiment [7] the target is full-length AtGRIP (Arabidopsis thaliana) (UniProt Q8S2T0). Briefly: two-hybrid; AH109 yeast, pGBKT7 and pGADT7 fusions; growth on SD/-Trp/-Leu/-His/-Ade, 7 days at 30°C; X-gal test of the MEL1 reporter.
In experiment [8] the target is AtGRIP_(aa711–788) (Arabidopsis thaliana) (UniProt Q8S2T0). The experiment is described as above.
Experiment [9] deals with AtGRIP_(aa711–788)-L742A (Arabidopsis thaliana) (UniProt Q8S2T0). The description is as above.

Results are given in words; binding and its absence hold for the method and conditions named. For some assays here: In cells and extracts the contact can be indirect. Some binding calls cover weakened binding; strength is not graded here.

Turning to EGVDMTYLKNVILKLLETGEVEALLPVVGMLLQFSPEEIQKCQ (domain or fragment, UniProt Q8S2T0 711-753) [AtGRIP_(aa711–753)], the binding result in experiment [1] was “no binding”.

B1: AtGRIP_(aa711–776) (domain or fragment, UniProt Q8S2T0 711-776)
chain: EGVDMTYLKNVILKLLETGEVEALLPVVGMLLQFSPEEIQKCQQAYHSSTTAATTTEATPSPASEG
For B1, the binding result in experiment [2] is reported as “no binding”.

B2: AtGRIP_(aa1-604) (domain or fragment, UniProt Q8S2T0 1-604)
chain: MSEDKESDVVGEEEESHVIKEDKELNDASNETLTENGDQLLQMIAELRLENDFLRSQFEGLKDEVAQGRSLQKAEQVEADSAQLKQLQEQVASLSREIDVEKQTRVAAEQALEHLREAYSEADAKSQEYSSKFSQVEQKLDQEIKERDEKYADLDAKFTRLHKRAKQRIQEIQKEKDDLDARFREVNETAERASSQHSSMQQELERTRQQANEALKAMDAERQQLRSANNKLRDTIEELRGSLQPKENKIETLQQSLLDKDQILEDLKKQLQAVEERKQIAVTELSAKHQKNLEGLEAQVVDALSERDKAAETISSLQVLLAEKESKIAEMEAAATGEAARLRAAAETLKGELAHLKSENEKEKETWEASCDALKSKLEIAESNYLQAEIEVAKMRSQLGSEMSMQTQILSTKDAELKGAREEINRLQSEFSSYKIRAHALLQKKDMELAAAKDSEQIKSLEEALKEAEKEVYLVSAERDRAQQDLQSALASLEKELEERAGALKDASEQIKSLEVKLDSTVARNQAEKQAWEEDLRVLEETWRRRCEALTAQNEASPAEGIEKELENAKLRNKRMKEEHESVRELADRLIEEKDREISRLVDE
Consider B2, for which the binding result in experiment [3] is “binds”; in experiment [4], “no binding”.

B3: AtGRIP_(aa605–788) (domain or fragment, UniProt Q8S2T0 605-788)
chain: MTNLRKSMESKPVWNKSPSQVHHYGNNNTESQQQDVSNLSTSAAEHQILILARQQAQREEELAQTQRHILALQEEIEELERENRLHSQQEAVLKTELREMERKQKREGVDMTYLKNVILKLLETGEVEALLPVVGMLLQFSPEEIQKCQQAYHSSTTAATTTEATPSPASEGSGLSVFSRFSFS
With B3, the binding result is given as “no binding” in experiment [3] and “binds” in experiment [4].

B4: AtGRIP_(aa711–766) (domain or fragment, UniProt Q8S2T0 711-766)
chain: EGVDMTYLKNVILKLLETGEVEALLPVVGMLLQFSPEEIQKCQQAYHSSTTAATTT
Regarding B4, the binding result in [5] is given as “no binding”.

B5: Endogenous Arabidopsis AtGRIP (protein, UniProt Q8S2T0 1-788)
chain: MSEDKESDVVGEEEESHVIKEDKELNDASNETLTENGDQLLQMIAELRLENDFLRSQFEGLKDEVAQGRSLQKAEQVEADSAQLKQLQEQVASLSREIDVEKQTRVAAEQALEHLREAYSEADAKSQEYSSKFSQVEQKLDQEIKERDEKYADLDAKFTRLHKRAKQRIQEIQKEKDDLDARFREVNETAERASSQHSSMQQELERTRQQANEALKAMDAERQQLRSANNKLRDTIEELRGSLQPKENKIETLQQSLLDKDQILEDLKKQLQAVEERKQIAVTELSAKHQKNLEGLEAQVVDALSERDKAAETISSLQVLLAEKESKIAEMEAAATGEAARLRAAAETLKGELAHLKSENEKEKETWEASCDALKSKLEIAESNYLQAEIEVAKMRSQLGSEMSMQTQILSTKDAELKGAREEINRLQSEFSSYKIRAHALLQKKDMELAAAKDSEQIKSLEEALKEAEKEVYLVSAERDRAQQDLQSALASLEKELEERAGALKDASEQIKSLEVKLDSTVARNQAEKQAWEEDLRVLEETWRRRCEALTAQNEASPAEGIEKELENAKLRNKRMKEEHESVRELADRLIEEKDREISRLVDEMTNLRKSMESKPVWNKSPSQVHHYGNNNTESQQQDVSNLSTSAAEHQILILARQQAQREEELAQTQRHILALQEEIEELERENRLHSQQEAVLKTELREMERKQKREGVDMTYLKNVILKLLETGEVEALLPVVGMLLQFSPEEIQKCQQAYHSSTTAATTTEATPSPASEGSGLSVFSRFSFS
In the case of B5, the binding result in experiment [6] is “binds”.

B6: full-length AtGRIP (protein, UniProt Q8S2T0 1-788)
chain: MSEDKESDVVGEEEESHVIKEDKELNDASNETLTENGDQLLQMIAELRLENDFLRSQFEGLKDEVAQGRSLQKAEQVEADSAQLKQLQEQVASLSREIDVEKQTRVAAEQALEHLREAYSEADAKSQEYSSKFSQVEQKLDQEIKERDEKYADLDAKFTRLHKRAKQRIQEIQKEKDDLDARFREVNETAERASSQHSSMQQELERTRQQANEALKAMDAERQQLRSANNKLRDTIEELRGSLQPKENKIETLQQSLLDKDQILEDLKKQLQAVEERKQIAVTELSAKHQKNLEGLEAQVVDALSERDKAAETISSLQVLLAEKESKIAEMEAAATGEAARLRAAAETLKGELAHLKSENEKEKETWEASCDALKSKLEIAESNYLQAEIEVAKMRSQLGSEMSMQTQILSTKDAELKGAREEINRLQSEFSSYKIRAHALLQKKDMELAAAKDSEQIKSLEEALKEAEKEVYLVSAERDRAQQDLQSALASLEKELEERAGALKDASEQIKSLEVKLDSTVARNQAEKQAWEEDLRVLEETWRRRCEALTAQNEASPAEGIEKELENAKLRNKRMKEEHESVRELADRLIEEKDREISRLVDEMTNLRKSMESKPVWNKSPSQVHHYGNNNTESQQQDVSNLSTSAAEHQILILARQQAQREEELAQTQRHILALQEEIEELERENRLHSQQEAVLKTELREMERKQKREGVDMTYLKNVILKLLETGEVEALLPVVGMLLQFSPEEIQKCQQAYHSSTTAATTTEATPSPASEGSGLSVFSRFSFS
With B6, the binding result in experiment [7] is given as “binds”.

B7: AtGRIP_(aa711–788) (domain or fragment, UniProt Q8S2T0 711-788)
chain: EGVDMTYLKNVILKLLETGEVEALLPVVGMLLQFSPEEIQKCQQAYHSSTTAATTTEATPSPASEGSGLSVFSRFSFS
As to B7, in experiment [8], the binding result is recorded as “binds”.

B8: AtGRIP_(aa711–788)-L742A (domain or fragment, UniProt Q8S2T0 711-788)
chain: EGVDMTYLKNVILKLLETGEVEALLPVVGMLAQFSPEEIQKCQQAYHSSTTAATTTEATPSPASEGSGLSVFSRFSFS
As for B8, the binding entry in experiment [9] is reported as “no binding”.
